# Some of the results follow.
# Experiments:
# HSkMC = human skeletal muscle cells; test: cytotoxicity call (relative viability < 0.9); conditions: 10 µM
# HepG2 = test: cytotoxicity call (relative viability < 0.9); conditions: 10 µM
# S. aureus RN4220 = test: growth inhibition call (relative growth <= 0.2); conditions: 50 µM
Compound,cytotoxicity call (HSkMC),cytotoxicity call (HepG2),growth inhibition call (S. aureus RN4220)
NCCCCCNC(=O)[C@H]1C[C@H]2C(=O)NCC(=O)N2[C@H]1c1cccc(OCCO)c1,inactive,inactive,inactive
C[C@H](CO)N1C[C@H](C)[C@H](CN(C)Cc2ccc(Cl)c(Cl)c2)Oc2ccc(NC(=O)Nc3cccc4ccccc34)cc2C1=O,inactive,active,inactive
Cc1noc(C)c1S(=O)(=O)N(C)C[C@H]1Oc2ccc(NC(=O)CCN3CCOCC3)cc2CC(=O)N([C@@H](C)CO)C[C@H]1C,inactive,inactive,inactive
C[C@@H]1CCCCO[C@@H](CN(C)C(=O)C2CCCCC2)[C@H](C)CN([C@H](C)CO)C(=O)c2cc(NS(=O)(=O)c3ccccc3)ccc2O1,inactive,inactive,inactive
COc1ccccc1CNC(=O)C[C@@H]1CC[C@@H]2[C@H](COC[C@@H](O)CN2C(=O)Nc2ccc(Cl)cc2)O1,inactive,inactive,active
Cc1noc(C)c1NC(=O)N(C)C[C@@H]1Oc2ccc(NC(=O)c3ccncc3)cc2CC(=O)N([C@H](C)CO)C[C@H]1C,inactive,inactive,inactive
Cc1noc(C)c1NC(=O)Nc1ccc2c(c1)C(=O)N([C@@H](C)CO)C[C@@H](C)[C@H](CN(C)S(C)(=O)=O)O2,inactive,inactive,inactive
C[C@@H]1CN([C@H](C)CO)C(=O)c2cc(C#CCN(C)C)cnc2O[C@@H]1CN(C)C(=O)c1cnccn1,inactive,inactive,inactive
Nc1nnc(-c2ccno2)o1,inactive,inactive,inactive
Cc1noc(C)c1S(=O)(=O)Nc1ccc2c(c1)CC(=O)N([C@H](C)CO)C[C@H](C)[C@@H](CN(C)Cc1ccc3c(c1)OCO3)O2,inactive,inactive,inactive
CCCNC(=O)N1C[C@@H](O)COC[C@@H]2O[C@@H](CC(=O)N3CCN(C)CC3)CC[C@H]21,inactive,inactive,inactive
Cc1ccccc1NC(=O)C[C@H]1CC[C@H]2[C@@H](COc3ccc(NC(=O)c4ccc(Cl)cc4)cc3C(=O)N2C)O1,inactive,inactive,inactive
O=C(C[C@@H]1CC[C@H](NC(=O)c2cccnc2)[C@@H](CO)O1)NCCN1CCCCC1,inactive,inactive,inactive
C[C@H]1CN([C@@H](C)CO)C(=O)c2cc(NC(=O)Cc3ccccc3)ccc2O[C@H]1CN(C)S(C)(=O)=O,inactive,inactive,inactive
CN(C(=O)C(Cl)Cl)c1ccc(OC(=O)c2ccco2)cc1,inactive,inactive,inactive
C[C@@H]1[C@@H](O)[C@@H](N(C)C)C[C@H]2COC[C@@H]21,inactive,inactive,inactive
C[C@@H]1CN([C@@H](C)CO)S(=O)(=O)c2ccc(-c3ccncc3)cc2O[C@@H]1CN(C)C(=O)c1ccc2c(c1)OCO2,inactive,inactive,inactive
C[C@H](CO)N1C[C@H](C)[C@H](CN(C)C(=O)Nc2cccc3ccccc23)Oc2c(NS(=O)(=O)c3ccc(Cl)cc3)cccc2C1=O,inactive,inactive,inactive
CCN1[C@H](C(=O)NCCOC)[C@@H](CO)[C@@H]2Cn3c(ccc(-c4ccc(C(=O)N(C)C)cc4)c3=O)[C@@H]21,inactive,inactive,inactive
